From the supplement of paper PMC5499739
In all, about 16,000 sequences were measured (“Z-score”: median about -0.37, highest 2% from about 3.1 on). The list shows a part of the results.

Test system: RBM10 RRM1-ZnF-RRM2 (GST-tagged construct)
Test: RNAcompete 7-mer binding Z-score; higher = stronger binding preference
Experimental: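 RNAcompete: 20 pmol GST-tagged RBM10 RNA-binding constructs were incubated with a designed RNA pool of about 241,000 sequences up to 41 nt (1.5 nmol) on glutathione beads for 30 min at 4 °C and washed. Bound RNAs were identified by microarray hybridisation. Each RNA 7-mer is scored by a one-sided Z-score of its enrichment, computed over probes that contain the 7-mer within longer pool sequences.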

Sequence	RNAcompete 7-mer binding Z-score
UGUAGCC	-0.624
GAAAAGC	0.268
CCAAAAC	-0.719
GUGCUCG	-0.18
ACUCAAC	-0.741
UUGAAUC	-0.562
UAGGUUU	0.876
AAUACAG	0.388
UGAGCAA	0.206
UCGCGAC	-0.723
UUGGACU	-0.249
GUACAAG	0.654
ACAGCCU	-0.708
AAAUUAA	-0.541
UAGUUAU	-0.464
UCUAAAU	-0.741
CUGUACC	-0.726
CCGACCU	-0.963
UAGAGGG	3.16
ACUUUUA	-0.828
CAGCAAG	-0.0889
UACUAUU	-0.675
CACGAUU	-0.606

Sequence	RNAcompete 7-mer binding Z-score
UGCAUAA	-0.424
AUCGAAU	-0.355
CAGUGCG	0.359
CGGAGGU	2.46
UCUCAAU	-0.617
AUACGUG	0.337
GGGGGAU	2.89
AAGCUGG	0.548
CCCGGAC	-0.526
UUACUAG	-0.249
CCACGCA	-0.664
AGGUCAU	0.151
GAACUGU	-0.231
UGCGUGA	0.381
GAUGCGA	0.385
GGCCCGU	-0.449
AGUUAAG	0.181
UCUGGGC	-0.0525
UCCAUGG	-0.0707
CAGACUC	-0.734
CUUAUGC	-0.941
CGCUGUA	-0.457
GUAUUAC	-0.125

Sequence	RNAcompete 7-mer binding Z-score
ACAAAAA	-0.264
CUACCUG	-1.01
UCCAUCA	-0.715
UAGCUUG	-0.53
GAAUCCC	-0.657
GACGUCA	-0.551
AUACGAA	0.0969
ACAGGAC	1.29
ACCUCGG	-0.5
AAGCCCC	-0.777
CAGCUUC	-0.927
CCCUUGC	-0.825
UGCAGGG	2.53
CCAUGGG	1.24
GGCCAUA	-0.107
AGGUCGU	0.461
GAGGUGG	3.37
CGCGCCC	-0.522
AAGCGAC	-0.0452
UCGUCUA	-0.657
UUAAUCC	-0.766
GAGUCGU	0.793
UAGUGUA	0.192

Sequence	RNAcompete 7-mer binding Z-score
AUCCAUU	-0.708
CAUGCUA	-0.635
CCCAGUC	-0.683
GAGAGUA	0.771
CUAAUCC	-0.752
UCGCCCC	-0.708
UGCGACU	-0.3
GAUCCUC	-0.828
GGCUUUA	-0.61
UUUUCAG	-0.548
AAGACGG	1.86
GCCCACU	-0.759
CUAAUUG	-0.653
GGAAAAG	2.97
GCAGUCG	0.432
AGUCGAG	0.326
GAGCCUA	-0.726
CUGACCC	-0.923
CCUUAAA	-0.81
GACGCCC	-0.836
UCUGAGC	-0.646
AUGAGAG	1.03
GCCACGU	-0.446

Sequence	RNAcompete 7-mer binding Z-score
AGGUAAA	2.1
UCACUAC	-0.562
GCUGGUA	0.698
GGAGCGU	1.74
UUGUGAA	-0.00512
GGUCCAC	-0.224
UUCUAGG	-0.176
AACCUCU	-0.876
CUCCAAA	-0.846
UAGAAAG	0.709
GAAUCGA	0.0386
GGCUCCC	-0.151
GCCCCUU	-0.748
CGCAUCA	-0.712
GUUUGUA	-0.249
AAAUCGU	-0.442
ACUUCCU	-1.01
GCCGCUG	-0.3
CAUUUUA	-0.999
CUAGUGG	0.578
CCACGUG	-0.227
CUCACCG	-0.628
GGAUUCG	0.505

Sequence	RNAcompete 7-mer binding Z-score
CCCGGAG	-0.0816
CUGGGCA	0.76
ACUGUUU	-0.854
UUUCUGG	-0.333
AAAAGGG	3.58
UAUCGCU	-0.683
GUGGGAA	3.49
UUUCCUG	-0.701
UUUCAGA	-0.599
UCCAAAA	-0.628
AUAUUAA	-0.395
UCCGUUU	-0.777
ACUCGAC	-0.799
AUGUAAG	0.235
UUGUUGC	-0.865
CUAGAAU	-0.628
UUGCGAG	-0.0124
GACCGGU	-0.0634
CUUUUUG	-0.89
CGUGAUC	-0.632
UACCUAA	-0.624
UAUUCAG	-0.362
CGCCAAG	-0.424

Sequence	RNAcompete 7-mer binding Z-score
UACUGGU	0.0277
CCUUGCG	-0.661
UUGCCGG	-0.493
CUGGCAG	0.024
CGGCGGG	1.97
CAGGCGA	1.17
CCCUACU	-0.763
UCUGACG	-0.686
GGGACCU	0.541
GCAACCG	-0.431
CGAUUCC	-0.868
GGUCAGA	0.782
CGGAUCA	0.578
CCUCAAA	-0.901
UCCGCGG	-0.129
GUUUUAU	-0.482
UUAGGUU	0.65
UCGAAGA	-0.158
UUUAUUU	-0.726
CAAAAAC	-0.519
CCCAAAC	-0.704
CGCUUGU	-0.81
GUUAUAC	-0.144

Sequence	RNAcompete 7-mer binding Z-score
ACUAAGC	-0.602
AAGCGGG	3.03
GGGCGUC	1.14
CGAGGUC	0.25
UAGUCGG	0.589
CGGACUA	-0.0853
CAAGAGC	-0.0343
UUAUAAG	-0.442
GGGUGGC	2.45
CGUGGCA	0.643
GGCGCGC	0.694
GACCCGU	-0.876
GCAUCAC	-0.548
CCCUAUU	-0.894
CUGUCUC	-0.894
CAUUGUA	-0.584
CGUUGGC	-0.209
CAGGAGG	2.42
UCGGCGU	0.297
GCGCGAC	-0.304
AUUACGG	0.439
CAUGAAA	-0.242
GCCUGCA	-0.621
